Test results published in PubChem BioAssay AID1347417 (National Center for Advancing Translational Sciences (NCATS), 2020).
Several values for one entry are separate records, joined by “and”; a condition that tells them apart may be missing. Equal entries are not always repeated. The campaign covered roughly 120,000 compounds. About 5,300 (4.4%) were called active. Inconclusive results, whose numbers are uncertain, are shown with a selection of clear calls. Calls follow the shape of the dose curve; as a rule, active = well fitted inhibition curve with a large enough effect; inconclusive = small, poorly fitted or top-dose-only effect; inactive = no such curve, though single readings can be large or run the other way. Potencies of inconclusive entries are doubtful fits and often do not repeat.

Assay: qHTS Primary assay for Inhibitors of Plasmodium falciparum Dd2 growth in vitro; also: nearly all actives have a fitted effect of over 65% in size;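 as to activity, negative = inhibition: plate controls were DMSO vehicle for no effect and reference drug for full effect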
Conditions: P. falciparum Dd2 growth, SYBR Green, 72 h; activity, negative = inhibition: at 28.9 µM (top of the series) unless noted; series mostly up to 28.9 µM
Summary of the method: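 Readout: SYBR Green fluorescence, 485 nm excitation, 535 nm emission, after ~16 h lysis at 37C. Before that, Dd2-infected red cells (2.5% hematocrit) grew 72 h with compound, 29 uM top final concentration.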
Potency is read from the fitted curve at half-maximal effect; tags tell the direction and shape of the fitted curve.

SMILES	Potency	activity, negative = inhibition
Cc1ccc(CN2C(=O)C(O)(c3c(C)[nH]c4ccccc34)c3ccccc32)cc1 (stereo unspecified)	inactive	–
Cc1oc2c(c1C(=O)N1CCN(C3CCCC3)CC1)CN(Cc1cccc(F)c1)CC2	active: 8.91 µM	–
COc1ccc(NC(=O)C2CCC(CNS(=O)(=O)c3cccc4nsnc34)CC2)cc1OC (stereo unspecified)	inconclusive: 3.98 µM [inhibitor, partial curve, poor fit]	–
Cn1nc(-c2nncn2CC2CC2)c2c1CCN(C(=O)c1n[nH]c(=O)c3ccccc13)C2	inactive	–
COc1ccc(C(=O)NC2CCN(C(=O)c3cc4c(=O)[nH]c(C)cn4n3)CC2)cc1	inactive	–
CSc1nc(NCCOC(C)=O)c(C#N)c(-c2ccc(C(C)(C)C)cc2)n1	active: 10 µM	–
CCN(C(=O)Cn1c(C(=O)OC)cc2sc(Cl)cc21)c1cccc(C)c1	inconclusive: 17.8 µM [inhibitor, single point]	–
COc1ccc([N+](=O)[O-])cc1NC(c1nnc(-c2ccccc2)o1)c1ccccc1F (stereo unspecified)	active: 12.6 µM	–
c1ccc(-c2nc3ccncc3[nH]2)cc1	–	inconclusive: -30.1% [inhibitor] [at 44.1 µM]
COc1ccc(C2Cn3nnc(C(=O)N4CCN(C(=O)c5cc(F)ccc5F)CC4)c3CO2)cc1 (stereo unspecified)	inactive	–
CCc1nc(-c2c3n(c(=O)n(Cc4ccc(C(=O)OC)cc4)c2=O)CCCC3)no1	inconclusive: 1.58 µM [inhibitor, full curve, poor fit]	–
O=C1NCCCCCN(C(=O)COc2ccc(F)cc2)[C@H]2CCC[C@@H]12	inconclusive: 10 µM [inhibitor, single point]	–
O=C(C1CCC1)N1CC(Oc2ccccc2-c2nc(-c3cnccn3)no2)C1	active: 10 µM	–
Cc1cccc(C(C(=O)N(C)Cc2ccon2)N(C)C)c1 (stereo unspecified)	inconclusive: 10 µM [inhibitor, partial curve, poor fit]	–
CC(C)N1C(=O)C(CC(=O)N2CCCC2)=C2CCCCC21 (stereo unspecified)	inactive	–
CCn1c2ccccc2c2cc(CN3CCN(Cc4ccc(Br)cc4)CC3)ccc21	inconclusive: 12.6 µM [inhibitor, single point]	–
Nc1c(C(=O)Nc2ccc(F)cc2)sc2nc(-c3cccs3)cc(C(F)(F)F)c12	inconclusive: 12.6 µM [inhibitor, single point]	–
COC(=O)c1ccc([C@@H]2Nc3c(OC)ccc(C)c3[C@@H]3C=CC[C@@H]32)cc1	active: 3.16 µM	–
COc1ccc(C(=O)Nc2cccc(C(=O)OCc3cc(=O)n4nc(C5CC5)sc4n3)c2)cc1	inconclusive: 3.16 µM [inhibitor, full curve]	–
COc1ccc(C(=O)N2CC(CO)C3(CCNCC3)C2)c(OC)c1 (stereo unspecified)	inactive	–
COc1cccc(NCc2cccn2-c2nnc(N3CCC(C)CC3)s2)c1	inconclusive: 10 µM [inhibitor, single point]	–
CCC(C)NC(=O)CN1C(=O)c2cccnc2Sc2ccccc21 (stereo unspecified)	inconclusive: 20 µM [inhibitor, single point]	–

SMILES	Potency	activity, negative = inhibition
O=C(CN1C(=O)NC2(CCS(=O)(=O)CC2)C1=O)Nc1ccc(Cl)cc1F	inactive	–
COCCN1CCNc2nc(CNCc3cnccn3)n(Cc3ccccc3)c2C1=O	inconclusive: 0.794 µM [inhibitor, partial curve]	–
CCCN(CC1CCOC1)S(=O)(=O)c1ccc(C)c(C)c1 (stereo unspecified)	inconclusive: 0.316 µM [inhibitor, full curve, poor fit]	–
O=C(Nc1cccn2nc(C3CCC3)nc12)c1ccc(F)cc1F	inconclusive: 17.8 µM [inhibitor, single point]	–
CCN(C(C)=O)C1CCN(Cc2nc(-c3cccc(Cl)c3)oc2C)C1 (stereo unspecified)	inactive	–
CS(=O)(=O)N1Cc2ccccc2CC2(CCCN(CC3CCNC3)C2)C1 (stereo unspecified)	inconclusive: 12.6 µM [inhibitor, single point]	–
COc1ccc(Cl)cc1NC(=O)c1c(NCc2ccc(C)o2)sc2c1CCC(C)C2 (stereo unspecified)	inconclusive: 10 µM [inhibitor, single point]	–
Cc1ccc(-c2cn3cccnc3n2)cc1NC(=O)C(C)(C)Oc1ccc(Cl)cc1	inconclusive: 17.8 µM [inhibitor, single point]	–
O=C1COCC2(CN1)CN(Cc1ccc3c(c1)CCO3)C2	inactive	–
C=C(C)CSc1nc2sc3c(c2c(=O)n1Cc1ccccc1)CC(C)(CC)OC3 (stereo unspecified)	inconclusive: 11.2 µM [inhibitor, single point]	–
Cc1ccccc1C(=O)N1CCC2(C1)C(=O)N(C)c1ccccc12 (stereo unspecified)	inconclusive: 12.6 µM [inhibitor, single point]	–
COc1ccccc1C(=O)N1CCC2(CC1)NC(=O)N(Cc1ccc(F)cc1)C2=O	inconclusive: 4.47 µM [inhibitor, partial curve, poor fit]	–
COc1ccc2[nH]cc(CCN=C(NC(=O)c3ccccc3F)Nc3nc(C)cc(C)n3)c2c1	inconclusive: 3.98 µM [inhibitor, partial curve, poor fit]	–
O=c1cc(-c2ccccc2)c2ccc3c(c2o1)CN(Cc1cccc(Cl)c1)CO3	active: 0.631 µM	–
CCNC(=O)N(C1CC1)C1CCOC2(CCN(C(=O)CCc3ccccc3)CC2)C1 (stereo unspecified)	inactive	–
CN(C)S(=O)(=O)CCCN1CC[C@@H](NC(=O)c2ccccn2)[C@H](O)C1	inactive	–
O=C(c1cccnc1)N1CCC2(COc3ncccc3[S+](=O)([O-])N2)C1 (stereo unspecified)	inactive	–
O=C(CSc1nnc(-c2ccc3c(c2)OCO3)o1)Oc1ccccc1	inactive	–
CC1(COc2cccnc2)COc2ccc(C(=O)NCc3ccc4c(c3)OCO4)cc2N1 (stereo unspecified)	inactive	–
CCCN(CCC)C(=O)C1COC2(CCC(C)CC2)N1C(=O)c1ccc(F)cc1 (stereo unspecified)	inconclusive: 2.51 µM [inhibitor, partial curve]	–
CCOc1cc(C2c3c(-c4cc(C)ccc4O)n[nH]c3C(=O)N2CCCOC(C)C)ccc1O (stereo unspecified)	inconclusive: 15.8 µM [inhibitor, single point]	–
Cc1cccc(C(=O)N2[C@H]3CC[C@@H]2c2cnc(-c4ccccc4)nc2C3)c1	inconclusive: 20 µM [inhibitor, single point]	–

SMILES	Potency	activity, negative = inhibition
O=C(NC1CCC1)c1ccc2c(c1)C1(CCN(CC3CC3)C1)CN2Cc1ccccc1 (stereo unspecified)	active: 14.1 µM	–
CC(C)CC(=O)Nc1ccc2nc(SCC(=O)N3CCc4ccccc43)sc2c1	inconclusive: 10 µM [inhibitor, single point]	–
COc1ccccc1CNC[C@H]1Cn2c(-c3ccccc3)cnc2CO1	inconclusive: 7.94 µM [inhibitor, partial curve, poor fit]	–
COc1cccc2c1OCCCN(c1cc(C3CC(O)C3)nc(N)n1)C2 (stereo unspecified)	inconclusive: 12.6 µM [inhibitor, single point]	–
COc1cccc(C(=O)N2CC(c3nnc(-c4ccc(C)cc4)o3)C3(CCOCC3)C2)c1C (stereo unspecified)	inconclusive: 11.2 µM [inhibitor, single point]	–
COc1ccccc1NC(=O)CSc1ncc2c(n1)-c1ccccc1N(Cc1ccccc1C)S2(=O)=O	inconclusive: 17.8 µM [inhibitor, single point]	–
O=C(Nc1ccc2c(c1)C(=O)N1CCC[C@H]1C(=O)N2)c1n[nH]c2c1CCC2	inactive	–
CN(Cc1ccccc1)C(=O)C1(c2ccc(NC(=O)C3CC3)cc2)CCCCC1	active: 4.47 µM	–
O=C1Nc2ccccc2CC12CCN([S+](=O)([O-])c1cccs1)C2 (stereo unspecified)	inconclusive: 3.55 µM [inhibitor, single point]	–
CCN(CC)C(=O)C(NC(=O)c1ccc(C)cc1)C1CCN(C(=O)c2cccc(OC)c2)CC1 (stereo unspecified)	active: 4.47 µM	–
Oc1ccccc1CN[C@H]1[C@H](O)[C@@H](N2CCC(Cc3ccccc3)CC2)[C@@H]2OC[C@H]1O2	inconclusive: 0.501 µM [inhibitor, full curve, poor fit]	–
O=C(Cc1ccccc1)Nc1sc2c(c1C(=O)Nc1ccccc1Cl)CCCCC2	inconclusive: 2 µM [inhibitor, single point]	–
Cc1ccc(C(=O)N2CCC3(C2)C(=O)N(CCc2ccccc2)c2ccccc23)cc1 (stereo unspecified)	inconclusive: 6.31 µM [inhibitor, partial curve, poor fit] and inconclusive: 7.94 µM [inhibitor, partial curve, poor fit]	–
COc1cccc(Cc2nc3ccccc3nc2SCC(=O)Nc2cccc(C)c2)c1	inconclusive: 17.8 µM [inhibitor, single point]	–
Cc1ccc(Cn2cc(S(=O)(=O)c3cccc(C)c3)c(=O)c3cc(F)c(N4CCOCC4)cc32)cc1	active: 10 µM	–
O=C(Nc1cc(-c2ccccc2)sc1C(=O)O)c1cccc(F)c1	inconclusive: 20 µM [inhibitor, single point]	–
CN1CCC2(CC1)CN(C(=O)Nc1ccccc1)Cc1ccccc1O2	inconclusive: 3.98 µM [inhibitor, single point]	–
CCc1nc(-c2c3n(c(=O)n(CC(=O)NCc4ccc(F)cc4)c2=O)CCCC3)no1	inactive	–
O=C(Cn1c(=O)n(Cc2nc(-c3ccccc3)no2)c(=O)c2cc3c(cc21)OCO3)Nc1ccccc1	inconclusive: 10 µM [inhibitor, partial curve, poor fit]	–
O=C(COc1ccccc1)NCC1(COc2ccccc2)C[C@@H](O)[C@@H](O)C1 (stereo partly specified)	inactive	–
CCC(C)n1c(=O)c2sccc2n2c(CCCC(=O)N3CCN(c4ccccc4)CC3)nnc12 (stereo unspecified)	inconclusive: 2.24 µM [inhibitor, full curve, poor fit]	–
Cc1cc(C)cc(OCCSc2nc3ccc(NC(=O)c4cccs4)cc3s2)c1	inconclusive: 4.47 µM [inhibitor, partial curve, poor fit]	–
